Among the data in the RNAGym collection of RNA variant scans (doi:10.7554/elife.90254) are self-cleavage values, retold here.

The labels stand for the following.
B1: LINE1-mini (parent)
chain: GGCAGAGCUCAACACAGCGUGGCAAAGUGGCUGUGGCUAGACUGCC

Read counts are not given, so values of variants with three or more changes are uncertain.

In this data set the parent is B1. Briefly: self-cleavage, relative activity (ratio to wild type); higher = more cleavage; in vitro, sequencing; the parent is a self-cleaving ribozyme.
In the case of GGCAGAUCUCAACACAGCGUGGCAAAGUGGCUUUGGCUUGCCUGCC [G7U G33U A39U A41C], the self-cleavage was found to be 0.07.

Take GGCAGAUCUCAAUACAGCGUCGCAAAGUGGCUGUGGCUAGACUGCC [G7U C13U G21C]: the self-cleavage stood at 0.05.

GGCAGAUCUCAACAUAGCGAGGUAAAGUGGCUGUGCUUAGACUGCA [G7U C15U U20A C23U G36C C37U C46A]: the self-cleavage stood at 0.02.

As to GGCAGAUCUCAACACAGCGUGGAAAAGUGGCCGUGGCGAGACUGCC [G7U C23A U32C U38G], the self-cleavage turned out to be 0.

Turning to GGCAGAUCUCAACACAGCAUAGCAAAGUGGCUGUGGCUAGACUGCC [G7U G19A G21A], the self-cleavage came to 1.55.

As to GGCAGAUCUCAACAGAGCGUCGCAAAGUGGCUGGGGCGAGCCUGCC [G7U C15G G21C U34G U38G A41C], the self-cleavage came out at 0.02.

With GGCAGAUCUCAAAACAGGGUGGCAAAGUGGCUGUGGCUAGACUGCC [G7U C13A C18G], the self-cleavage is 0.07.

On to GGCAGAUCUCAACACAGCGUGGAAAAGUGGCUAUGGCUGGACUGCC [G7U C23A G33A A39G], for which the self-cleavage is 0.01.

As to GGCAGAUCUAAACACCGCGUGGCAAAGUGGCUGUGGCUAGACUGCA [G7U C10A A16C C46A], the self-cleavage came out at 0.01.

For GGCAGAUCUCAACAAAGCGUGGCAGAGUGGCUGUGGCUAGACUGCC [G7U C15A A25G], the self-cleavage amounted to 0.08.

As to GGCAGAUCUAUACACAGCGUGACAGAGUGGCUCUGGCUAGACUGCC [G7U C10A A11U G22A A25G G33C], the self-cleavage worked out at 0.01.

As to GGCAGAUCUCAACACAGUGUGGCAAAGUGGCUGUUGCUAGACUGCC [G7U C18U G35U], the self-cleavage worked out at 0.02.

Consider GGCAGAUCUCAACACAGGGUGGCAAAGUGGAUGUGGCUAGACUGCC [G7U C18G C31A], for which the self-cleavage amounted to 0.03.

As for GGCAGAUCUCAACACAGCUUGGCAAAGUGGCGGUGGCUAGACUGCC [G7U G19U U32G], the self-cleavage turned out to be 1.05.

Turning to GGCAGAUCUCAACACAGCCUGUCAAAGUUGCUGUGGCUAGACUGCC [G7U G19C G22U G29U], the self-cleavage worked out at 0.03.

Regarding GGCAGAUCUCAACACAGCGUAGCAAAGUGGCUGUCGCUAGACUGCC [G7U G21A G35C], the self-cleavage was 0.07.

For the variant GGCAGAUCUCAAAACAGCGUUGCAAAGUGGCUGUGGAUAGAUUGCC [G7U C13A G21U C37A C42U], the self-cleavage amounted to 0.05.

As for GGCAGAUCUCAACACAGAGUGGCAAUGGGGCUGUGCCUAGACUGCA [G7U C18A A26U U28G G36C C46A], the self-cleavage amounted to 0.

Regarding GGCAGAUCUCAACACAGCGUGGCAAAGUGGCUGUGGAUAGAAUGUC [G7U C37A C42A C45U], the self-cleavage was 0.02.

Regarding GGCAGAUCUCAACACAGCGUGUCAAAGUUGCUGUGGCUAGACUGCU [G7U G22U G29U C46U], the self-cleavage amounted to 0.03.

Take GGCAGAUCUUAACACAGCGUGGCAAAGUGGCUGUGGCAAGUCUGCC [G7U C10U U38A A41U]: the self-cleavage is 0.01.

In the case of GGCAGAUGUCAACACAGCGGGGCAAAGUGGCUGUGGCUAGACUGCA [G7U C8G U20G C46A], the self-cleavage turned out to be 0.09.

As for GGCAGAUCUAAACACAGGGUGGCAAAGUGGCUGUGGCUAGACUGCC [G7U C10A C18G], the self-cleavage was found to be 0.05.

In the case of GGCAGAUCUCAACACAGCGUGGAAAUGUGGCUGUGGCUAGUCUGCC [G7U C23A A26U A41U], the self-cleavage came out at 0.1.

Take GGCAGAUGUCAACAUAGCGUGGCAAAGUGGCUGUGGCAAGACUGCC [G7U C8G C15U U38A]: the self-cleavage amounted to 0.11.

As to GGCAGAUCUCAACACAGCGUGGAAAAGUGGCCGUGGCUAGACUGCC [G7U C23A U32C], the self-cleavage was 0.05.

GGCAGAUCUCAACACAGCGUGUCAAAGUGGCUUUGGCUAGACAGCC [G7U G22U G33U U43A]: the self-cleavage came to 0.34.

Consider GGCAGAUCUCAACACAGCGUGGAAAAGUGGCAGUGGCUAGACUUCC [G7U C23A U32A G44U], for which the self-cleavage was determined as 0.2.

As to GGCAGAUCUCAAGACAGCGUGGCAAAGUGGCUGUGGUUAGACUGCC [G7U C13G C37U], the self-cleavage came to 0.01.

In the case of GGCAGAUCUCAACAGAGAGUGGCAAAGUGGCUGUGGCUAGACUGCC [G7U C15G C18A], the self-cleavage turned out to be 0.03.

As to GGCAGAUCUCAACACAACGGGGCAAAGAGGCUGUGGCUAGACUGCC [G7U G17A U20G U28A], the self-cleavage stood at 0.11.

Take GGCAGAUCUCAACACAGCGUGGCAAAGUGGCUGUGGAUAGAUUGGC [G7U C37A C42U C45G]: the self-cleavage is 0.03.

For the variant GGCAGAUCUUAACACAGCGUGAGAAAGUGGCUGAGGCUAGACUGCC [G7U C10U G22A C23G U34A], the self-cleavage was determined as 0.01.

For GGCAGAUGACAACACAGUGUGGCAAAGUGACUGUGGCUGGACUGCC [G7U C8G U9A C18U G30A A39G], the self-cleavage came to 0.01.

Consider GGCAGAUCUCAACACAGCGUUGCAAAGUGGCUGUGGCUAGAUUGCC [G7U G21U C42U], for which the self-cleavage turned out to be 0.15.

GGCAGAUCUAAACACAGCGUGGCAAACUGGCUGUGGCAAUACUGCA [G7U C10A G27C U38A G40U C46A]: the self-cleavage was determined as 0.

For GGCAGAUCACAACACAGCGUGGCAAAGUGGCUGUGGCUAGACUUCA [G7U U9A G44U C46A], the self-cleavage turned out to be 0.01.

With GGCAGAUCUCAACACAACGUGGCAAAGUGGCCGUGGCUAGACAGCC [G7U G17A U32C U43A], the self-cleavage is 0.13.

GGCAGAUUACAAAACAGCGUGGCAAAGUGGCUGUGGCUAGACUGCC [G7U C8U U9A C13A]: the self-cleavage turned out to be 0.88.

Turning to GGCAGAUCUCAAUAGAGCGUUGCAAAGUGGCUGUGGCUAGAGUCCC [G7U C13U C15G G21U C42G G44C], the self-cleavage was found to be 0.08.

For GGCAGAUCUCAAUACCGCGUGGCAAAGUGGCUGUGGCAAGACUGCC [G7U C13U A16C U38A], the self-cleavage was found to be 0.19.

In the case of GGCAGAUCUCAACACAGCGUGGCAAAGUGGUUCUGGUUAGACUGCC [G7U C31U G33C C37U], the self-cleavage stood at 0.01.

As for GGCAGAUCUCAACACAGGGUGGCAAAGUGGCUUUGGCUAAACAGCC [G7U C18G G33U G40A U43A], the self-cleavage worked out at 0.13.

With GGCAGAUUUCAACACAGCAUGGCCAAGUGGCUGUGUCUAGACUGCC [G7U C8U G19A A24C G36U], the self-cleavage came to 0.12.

GGCAGAUCUCAACAAAGCGUGGCAAAGUGGCCGUGGCUAGACUGCC [G7U C15A U32C]: the self-cleavage turned out to be 0.04.

Regarding GGCAGAUCUCAACACACCGUGGCAAAGUGGCCGUGGAUAGAAUGCC [G7U G17C U32C C37A C42A], the self-cleavage came to 0.03.

Turning to GGCAGAUCUCAACACAGCUUGGCAAAGGGGCUGUGGCUAGACUGCC [G7U G19U U28G], the self-cleavage amounted to 0.03.

Regarding GGCAGAUCUCAAGACAGCGUGGCAAAGUGGCUGUAGAUAGACUGCC [G7U C13G G35A C37A], the self-cleavage came to 0.1.

In the case of GGCAGAUCUCAACACAGCGUGGCAAAGUGGUUGUGGCCAGACUGCC [G7U C31U U38C], the self-cleavage was determined as 0.02.

Take GGCAGAUCUCAACACAUCGUGGAAAAGUGGCUGUGGCUAGACUGCC [G7U G17U C23A]: the self-cleavage came to 0.46.

With GGCAGAUCUCAACACAGUGUGGCAAAGUGGCUGUGGCUGGACUGCC [G7U C18U A39G], the self-cleavage stood at 0.03.

For GGCAGAUCUCAACACAGCGUGGAAAAGUGGCUGUGGCUAGACUGUC [G7U C23A C45U], the self-cleavage was determined as 0.11.

Turning to GGCAGAUCCCAACACUGCGCGGCAAAGUGGCUAUGGCUAGACUGCC [G7U U9C A16U U20C G33A], the self-cleavage worked out at 0.02.

As for GGCAGAUCUCAACACAGCGUGGGAAAGUGGCUGUGGCUAGACUUCC [G7U C23G G44U], the self-cleavage amounted to 0.59.

As to GGCAGAUCUCAACACAGCGUGCCAGAGUGGCUGUGGCUAGUCUGGC [G7U G22C A25G A41U C45G], the self-cleavage is 0.07.

For the variant GGCAGAUCUCAACACAGCGUGGCAAAGUGGCUGUGCCUACACUGCC [G7U G36C G40C], the self-cleavage was 0.07.
